Laboratory results: PubChem BioAssay AID651820 (National Center for Advancing Translational Sciences (NCATS), 2012)
Out of some 340,000 compounds screened, about 12,000 (3.5%) were called active. Inconclusive means that the source gave no clear call. Such entries were picked first, then a sample of the others. The call rests on the fitted dose curve; in most records, active means well fitted inhibition curve with a large enough effect; inconclusive means small, poorly fitted or top-dose-only effect, or another doubt; inactive means no such curve, though single readings can be large or run the other way. Potencies of inconclusive entries are left out as doubtful fits.

assay: qHTS Assay for Inhibitors of Hepatitis C Virus (HCV); details: Huh7.5.1 HCVcc-Cre (HCVcc is cell-culture hepatitis C virus) infection, luciferase reporter, 44 h; activity change, negative = inhibition: at 41.8 µM (top of the series) unless noted
Procedure, shortened: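 Seed cells (1,000/well) for 4 h; treat with compound and infect with HCVcc-Cre, moi about 0.5. Incubate 44 h, then detect luciferase activity.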
On the % scale 0 is the no-effect control and ±100 the full control effect; potency means the concentration at half of the fitted maximal effect; tags describe the fitted curve by direction and shape.

SMILES	Potency	activity change, negative = inhibition
COc1ccc(-n2c(-c3ccco3)nc3c(cnn3-c3ccc(C)cc3)c2=O)cc1	inconclusive [inhibitor, partial curve]	–
Cc1ccc(NCC(=O)N/N=C/c2cccc(Oc3ccccc3)c2)cc1	inconclusive [inhibitor, single point]	–
COc1ccc(CCC(=O)Nc2cccc(S(=O)(=O)N(C)C)c2)cc1OC	inconclusive [inhibitor, single point]	–
Fc1ccc(CSc2nnc(-c3cccnc3)o2)cc1	inactive	–
CC(=O)O[C@@H]1[C@@H](O)[C@@H](O)[C@H](Oc2c(-c3ccc(O)cc3)oc3c(CC=C(C)C)c(O)cc(O)c3c2=O)O[C@H]1C	inactive	–
COc1ccc(CCNC(=O)CCS(=O)(=O)c2ccc3c(c2)oc(=O)n3C)cc1OC	inactive	–
COc1ccc(CCNC(=O)C23CCC(C)(C(=O)O2)C3(C)C)cc1OC (stereo not given)	inactive	–
O=C(Nc1cc(-c2ccccc2)nn1-c1c(Cl)cccc1Cl)c1ccc(F)cc1	inconclusive [inhibitor, single point]	–
COc1ccc(C(=O)C(C)OC(=O)CCN2C(=O)C3CC=CCC3C2=O)cc1 (stereo not given)	inactive	–
Cc1ccc(NC(=O)C(C)SCC(=O)Nc2ccc(F)cc2)cc1S(=O)(=O)N1CCOCC1 (stereo not given)	inactive	–
Cc1ccc(C(=O)Nc2nc(-c3cc(Cl)sc3Cl)cs2)cc1	inconclusive [inhibitor, partial curve, poor fit]	–
Cc1ccc(CNc2ccc(S(=O)(=O)N3CCOCC3)cc2[N+](=O)[O-])cc1	inconclusive [inhibitor, partial curve]	–
Cn1cc(C(=O)c2ccccc2)c2ccccc21	inconclusive [inhibitor, partial curve]	–
O=C1CCN(Cc2ccccc2)S(=O)(=O)c2ccc(C(F)(F)F)cc21	inconclusive [inhibitor, single point]	–
COc1ccccc1NC(=O)CC1Nc2ccccc2NC1=O (stereo not given)	active: 10 µM	–
Cc1cccc(N2CCN(C(=O)C3CCN(c4nnc(-n5cccc5)s4)CC3)CC2C)c1 (stereo not given)	inconclusive [inhibitor, partial curve]	–
Cc1cc(C)nc(NC(=O)c2cccs2)n1	inactive	–
C=C(C)COc1ccc(-c2n[nH]c(C)c2-c2ccc(OC)c(OC)c2)c(O)c1	active: 12.6 µM	–
COC(=O)[C@@]1(Cc2ccc(OC)cc2)[C@H]2c3cc(C(=O)N(C)C)n(CCSCCO)c3C[C@H]2CN1C(=O)c1ccccc1	inactive	–
Cc1ccc(NC(=O)c2cc(S(=O)(=O)NCCC3=CCCCC3)ccc2F)cc1	inconclusive [inhibitor, partial curve]	–
CCCCn1c(N)c(N(Cc2ccccc2OC)C(=O)c2sccc2C)c(=O)[nH]c1=O	–	inactive: -0.368% [at 8.37 µM]
CCO[C@@H]1OC(C(=O)N2CCN(Cc3ccccc3)CC2)=C[C@H](c2ccc(C(F)(F)F)cc2)[C@H]1CCCO	inconclusive [inhibitor, partial curve, poor fit]	–
NS(=O)(=O)c1ccc(CCNC(=O)CN2CCN(Cc3cccc4ccccc34)CC2)cc1	inconclusive [inhibitor, single point]	–
COc1ccc(NC(=O)CN(C)C(=O)c2ccc(N3CCCCCC3)c([N+](=O)[O-])c2)cc1	inconclusive [inhibitor, single point]	–

SMILES	Potency	activity change, negative = inhibition
C=CCN1C(=O)CSc2ccc(C(=O)NCc3ccco3)cc21	inconclusive [inhibitor, partial curve, poor fit]	–
COc1ccc(C(=O)Nc2ccc(S(=O)(=O)N3CCCCC3C)cc2)c(OC)c1OC (stereo not given)	active: 11.2 µM	–
COc1cc([N+](=O)[O-])ccc1NC(=O)CCCOc1ccccc1	inconclusive [inhibitor, single point]	–
Cn1c(=O)c2c(nc(NCCCO)n2Cc2cccc(C(F)(F)F)c2)n(C)c1=O	inconclusive [inhibitor, single point]	–
O=C(CCS(=O)(=O)c1ccc(Br)s1)NC1CCCC1	inactive	–
CC(=O)Oc1ccc(Cl)cc1/C=C/c1cc(OC(C)=O)c2ccccc2n1	inactive	–
CCC(=C/c1sc2ccc3ccccc3c2[n+]1C)/C=C1\Sc2ccc3ccccc3c2N1C	inconclusive [inhibitor, full curve]	–
CC(C)Oc1ccc(/C=N/NC(=O)C(CSCc2ccccc2)NC(=O)c2ccc([N+](=O)[O-])cc2)cc1 (stereo not given)	inconclusive [inhibitor, full curve, poor fit]	–
Cc1nc2ccc(NC(=O)C3CCN(S(=O)(=O)c4cccs4)CC3)cc2s1	inconclusive [inhibitor, full curve, poor fit]	–
O=C(CN1C(=O)/C(=C/c2ccc(F)cc2)SC1=S)NC1C=CS(=O)(=O)C1 (stereo not given)	inconclusive [inhibitor, single point]	–
Cc1ccc(CS(=O)(=O)CC(C)(O)c2ccccc2)cc1 (stereo not given)	inactive	–
Cc1ccsc1/C=N/Nc1nc2ccccc2s1	inconclusive [inhibitor, partial curve]	–
COc1ccc(-c2nc(CN3CCN(C(=O)c4ccco4)CC3)c(C)o2)c(F)c1	inactive	–
CC(C)=CCN1CCN(CCC2=C(C)CCCC2(C)C)CC1CCO (stereo not given)	inconclusive [inhibitor, single point]	–
CN(Cc1nc(-c2ccncc2)no1)S(=O)(=O)c1ccc(Br)cc1	inconclusive [inhibitor, partial curve]	–
Clc1ccc(SCc2cc(-c3ccccc3)no2)cc1	inactive	–
Cc1ccc(OCCCC(=O)Nc2ccc(N3CCOCC3)cc2)c(C)c1	inconclusive [inhibitor, single point]	–
CCOc1cc(N2CCOCC2)c(OCC)cc1NC(=O)CSc1ncccc1C(=O)O	inactive	–
CC(NC(=O)c1c(O)c2ccccc2n(C)c1=O)c1ccccc1 (stereo not given)	inconclusive [inhibitor, single point]	–
C=CCn1c(N)c(C(=O)NCC2CCCO2)sc1=S (stereo not given)	inactive	–
Cc1csc(SCC(=O)NC2CCCC2)n1	inactive	–
COc1cc(NC(=O)c2ccc(-c3cccc([N+](=O)[O-])c3)o2)ccc1NC(=O)C(C)C	inconclusive [inhibitor, full curve, poor fit]	–
CN(C)c1ccc([C@@H]2[C@@H]([N+](=O)[O-])[C@H]3C=Cc4ccccc4N3[C@H]2C(=O)c2ccc(Cl)cc2)cc1	inconclusive [inhibitor, single point]	–
c1ccc(-n2ncc3c(NCCN4CCOCC4)ncnc32)cc1	inactive	–

SMILES	Potency	activity change, negative = inhibition
NC(N)=Nc1ccc(C=C2C=Cc3ccccc32)cc1	inconclusive [inhibitor, single point]	–
CC(=O)Nc1sc2c(c1C(c1ccccn1)N1CCN(C)CC1)CCCC2 (stereo not given)	inactive	–
COc1ccccc1C(=O)Nc1ccccc1C(=O)Nc1ccccc1	inconclusive [inhibitor, single point]	–
CCN(CC)S(=O)(=O)c1cccc(-c2cn3cc(C)ccc3n2)c1	inconclusive [inhibitor, partial curve]	–
C=CCNC(=O)C(=O)Nc1ccc2c(c1)N(S(=O)(=O)c1cccs1)CCC2	inconclusive [inhibitor, partial curve]	–
O=C(CN1C(=O)C(=O)N(C2CCCC2)C1=O)Nc1ccc(N2CCOCC2)cc1	inactive	–
Cc1ccc(S(=O)(=O)n2c3ccc(F)cc3c3nc(C)sc32)cc1	inconclusive [inhibitor, single point]	–
CC(C)N=C(NS(=O)(=O)c1ccccc1)C(Cl)(Cl)Cl	inconclusive [inhibitor, single point]	–
CC(C)(C)c1ccc(-c2noc(CCC(=O)N3CCOCC3)n2)cc1	inactive	–
Cc1c(CCC(=O)N2CCC[C@H]2C(=O)O)c(=O)oc2c(C)c3oc4c(c3cc12)CCCC4	inactive	–
O=C(CSc1nc2ccccc2[nH]1)NC1CCCc2ccccc21 (stereo not given)	inconclusive [inhibitor, single point]	–
O=C(Nc1nc2c(s1)CCCC2)c1ccc(Br)s1	inconclusive [inhibitor, single point]	–
CC(=O)c1ccc(S(=O)(=O)N(C)CCCC(=O)N2CCN(c3ncccn3)CC2)cc1	inactive	–
N#Cc1nc(-c2ccccc2)oc1NCc1ccco1	inconclusive [inhibitor, full curve]	–
COC(=O)C1=C(c2ccc(OC(F)(F)F)cc2)C[C@@H]2CC[C@H]1N2C(=O)N1CCCCC1	inconclusive [inhibitor, full curve]	–
O=C(COc1cccc(C(F)(F)F)c1)N1CCN(c2ccc(O)cc2)CC1	inconclusive [inhibitor, single point]	–
CN1C(=O)NC(=O)/C(=C\C=C\c2ccccc2[N+](=O)[O-])C1=O	inconclusive [inhibitor, single point]	–
CCCCN(C)C(=O)c1cc2c(s1)-c1ccccc1S(=O)(=O)C2	inactive	–
COc1ccc([N+](=O)[O-])cc1NC(=O)COC(=O)c1ccccc1C(=O)c1ccccc1	inactive	–
O=C(OCCOc1ccccc1F)c1cccc(S(=O)(=O)N2CCOCC2)c1	inactive	–
CCCCn1c(CN(C)Cc2ccccc2)nc2c1c(=O)n(C)c(=O)n2C	active: 11.2 µM	–
Cc1c(C=C2C(=O)c3ccccc3C2=O)cc(C#N)n1C	inactive	–
